Source: PubChem BioAssay AID463173 (ICCB-Longwood Screening Facility, Harvard Medical School, 2010)
The campaign covered roughly 52,000 compounds. About 1,700 (3.3%) were called active. Rule as the data show it: active = survival mostly below about 52% (no sharp cut-off); inactive = mostly above about 56%. The list shows a part of the results.

Each molecule was assayed on Wild type (assay: S. aureus survival, RN4220 and DeltatarO strains – OD600, teichoic acid synthesis inhibitors, primary screen (AID 463173)). Conditions: S. aureus RN4220 wild type/DeltatarO growth, OD600, 18 h, hits give low values, screened at 18.75 µg/mL (by protocol).

| SMILES | survival |
| --- | --- |
| COc1ccccc1C(=O)Nc1cccc(C(=O)OCc2cc(=O)n3ccsc3n2)c1 | active: -6% |
| Cc1ccc(S(=O)(=O)N(CC(=O)Nc2ccc(Cl)cc2Cl)c2ccccc2C)cc1 | inactive: 82% |
| COc1cccc2c1cc1c(=O)n(CC(=O)N3CCN(c4ccccc4)CC3)nc(C)n12 | inactive: 91% |
| O=C(CCS(=O)(=O)c1ccc(Br)cc1)Nc1ccc(F)cc1F | inactive: 53% |
| CCc1ccc(CNc2ccc3c(c2)ncn3C(C)(C)C)cc1 | active: -16% |
| Cc1ccc(-c2nc3ncccn3c2Nc2ccc3c(c2)OCCO3)cc1 | inactive: 77% |
| Cc1cccc(NS(=O)(=O)c2ccc3c(c2)CC(C)N3C(=O)C2CCC2)c1C (stereo not given) | inactive: 74% |
| CCc1nc2ccc(C(=O)NCc3cc(OC)ccc3OC)cc2nc1CC | inactive: 135% |
| O=C1CC(c2nc(-c3ccccc3)no2)CN1c1ccccc1 (stereo not given) | inactive: 19% |
| CCOc1ccc(N2CC(c3nc4ccccc4n3CCOc3ccccc3OC)CC2=O)cc1 (stereo not given) | inactive: 34% |
| Cc1cccc2sc(N(CCN(C)C)C(=O)c3ccc4c(c3)OCCO4)nc12 | inactive: 131% |
| COc1ccc(Cn2c(=O)n(Cc3ccco3)c(=O)c3oc4ccccc4c32)cc1 | inactive: 91% |
| CCOc1ccc(CCNC(=O)CS(=O)(=O)Cc2nc(-c3ccc(OC)cc3)oc2C)cc1 | inactive: 88% |
| COc1ccc(-c2nc(CSCC(=O)N3CCN(c4cc(Cl)ccc4C)CC3)c(C)o2)cc1 | active: -1% |
| CCN(CC)c1ccc(NC(=O)c2cnn(-c3ccccc3)c2-n2cccc2)c(C)c1 | inactive: 127% |
| Cc1ccc(Cn2c(C)c3cnn(CC(=O)NCc4ccccc4)c(=O)c3c2C)cc1 | inactive: 132% |
| CC(=O)N1CCc2cc(S(=O)(=O)CCC(=O)Nc3ccc(C)cc3Br)ccc21 | inactive: 83% |
| Cc1cc(OC(C)C(=O)Nc2cccc(-c3nc4ccccc4o3)c2)cc(C)c1Cl (stereo not given) | inactive: 55% |
| O=C(NCCCN1CCCCCC1)c1ccc2c(c1)sc1nc(-c3ccccc3)cn12 | inactive: 38% |
| COc1ccc(-c2nc(CS(=O)(=O)CC(=O)NCc3ccccc3Br)c(C)o2)cc1 | inactive: 60% |
| Cc1ccc(CNC(=O)CCCn2c(=O)c3ccccc3n(CC(=O)Nc3ccc(C)cc3)c2=O)cc1 | inactive: 72% |
| CCC(C(=O)Nc1ccc(C)c(C)c1)n1c(=O)c(C(F)(F)F)nc2ccccc21 (stereo not given) | inactive: 101% |
| CCOc1ccc(NC(=O)CCc2c(C)nn(-c3ccc(N4CCCC4)nn3)c2C)cc1 | inactive: 110% |

| SMILES | survival |
| --- | --- |
| Cc1nc2cc(-c3ccccc3)nn2c(C)c1CCC(=O)Nc1ccc(F)cc1F | inactive: 79% |
| Cc1ccc(CNC(=O)CS(=O)(=O)c2cccc3nsnc23)cc1 | inactive: 135% |
| CCOC(=O)c1c(NC(=O)COc2ccc(Cl)cc2C)sc2c1CCCCC2 | inactive: 80% |
| COc1ccccc1C(O)(C(=O)NNc1cccc(Br)n1)c1ccccc1OC | inactive: 106% |
| COc1cccc(NC(=O)Cn2c(=O)n(CCC(=O)NCCc3ccc(Cl)cc3)c(=O)c3ccccc32)c1 | inactive: 105% |
| CC(C)(C)c1ccc(C(=O)NC2CCSC2=O)cc1 (stereo not given) | inactive: 111% |
| COc1ccc(CCNC(=O)Cc2c(C)c3cc4c(C(C)(C)C)coc4c(C)c3oc2=O)cc1 | inactive: 98% |
| Cc1ccc(C)c(Nc2cc(C(=O)NC3CCCC3)c3ccccc3n2)c1 | inactive: 93% |
| COc1ccc(NC(=O)CC2C(=O)N(c3ccc(OC)cc3)C(=O)N2CCC2=CCCCC2)cc1 (stereo not given) | inactive: 71% |
| Cc1ccc(CNC(=O)c2cc3c(=O)n(Cc4ccco4)ccc3nc2C)cc1 | inactive: 79% |
| COc1cc(-c2noc(-c3ccc(NCC4CCCO4)c([N+](=O)[O-])c3)n2)cc(OC)c1OC (stereo not given) | inactive: 87% |
| COC(=O)c1ccc(CO)nc1 | inactive: 101% |
| COc1cc(NC(=O)CSc2nc3ncccc3o2)cc(OC)c1 | inactive: 57% |
| O=C1c2cc(OCCN3CCOCC3)ccc2-c2ccc(OCCN3CCOCC3)cc21 | inactive: 95% |
| COc1cc(NC(=O)CN2CCN(c3ccc(F)cc3)CC2)cc(OC)c1 | inactive: 99% |
| CCn1cc2nc(SCC(=O)Nc3cc(OC)cc(OC)c3)n(Cc3ccc(Cl)cc3)c(=O)c2n1 | inactive: 98% |
| Cc1ccc2oc(-c3ccc(NC(=O)CCC(=O)O)cc3)nc2c1 | inactive: 65% |
| Cc1ccc(NC(=O)CCc2c(C)nc3c(-c4ccc(F)cc4)c(C)nn3c2C)cc1F | inactive: 82% |
| Cc1cc(C)c(Nc2ncnc3c2cnn3C)c(C)c1 | inactive: 89% |
| Cc1nn(CC(=O)NC2CCC(C)CC2)c(=O)c2c1sc1ccccc12 (stereo not given) | inactive: 82% |
| O=C(/C=C/c1ccccc1Cl)N1CCC(c2nc3ccccc3o2)CC1 | inactive: 72% |
| Cc1ccccc1N1C(=O)c2ccccc2NC1c1ccncc1 (stereo not given) | inactive: 101% |
| COC(=O)N1CCCc2cc(S(=O)(=O)NCc3ccccc3)ccc21 | inactive: 86% |

| SMILES | survival |
| --- | --- |
| CCOc1ccc(NC(=O)c2sc3nc4n(c(=O)c3c2C)CCC4)cc1 | inactive: 87% |
| COc1ccc(-c2nn3c(=O)cc(CN4CCN(C(=O)/C=C/c5ccccc5)CC4)nc3s2)cc1 | inactive: 72% |
| Cc1cccc(C)c1NC(=O)c1ccc2c(c1)nnn2C1CCCC1 | active: -6% |
| CCOc1cc(-c2ccc(OC(=O)c3ccccc3Cl)c(OC)c2)cc(=O)c2c(C)oc(C)c12 | inactive: 83% |
| CCOC(=O)c1cc2occc2n1Cc1c(F)cccc1Cl | inactive: 100% |
| CC(C)(C)NC(=O)Cc1ccccc1 | inactive: 103% |
| COc1ccc(C2CC(=O)Nc3c2c(=O)[nH]c2nc4ccccc4n32)cc1 (stereo not given) | inactive: 75% |
| Cc1ccccc1COC(=O)c1nn(-c2ccccc2)nc1N | active: -9% |
| COc1ccccc1N1CCN(C(=O)Cn2c(=O)n3nc(-c4cccc(F)c4)nc3c3ccccc32)CC1 | inactive: 70% |
| O=C(COc1ccccc1O)NCCN1CCOCC1 | inactive: 98% |
| CCCCN(CC)CCNC(=O)C1CCN(S(=O)(=O)c2cccc3nsnc23)CC1 | inactive: 87% |
| CCNC(=O)c1ccc(NC(=O)N2CCCCc3ccccc32)cc1 | inactive: 74% |
| Cc1cc(C)cc(NC(=O)CSc2nc3c(c(=O)[nH]2)CN(Cc2ccc(F)cc2)CC3)c1 | inactive: 83% |
| CCn1cc(C(=O)Nc2cccc(Cl)c2)c2cc(OC)c(OC)cc2c1=O | inactive: 76% |
| CC(=O)c1ccc(N2CCN(S(=O)(=O)c3ccc(-c4coc(C)n4)cc3)CC2)cc1 | inactive: 71% |
| CC(CCc1ccccc1)NC(=O)Cn1ncc2c3ccccc3n(Cc3ccccc3F)c2c1=O (stereo not given) | inactive: 85% |
| CCc1nn(CC(=O)N2CCN(c3ccc(OC)cc3)CC2)c(=O)c2cc3sccc3n12 | inactive: 88% |
| Cn1c(=O)oc2cc(S(=O)(=O)CCC(=O)N3CCN(c4ccccc4F)CC3)ccc21 | inactive: 90% |
| O=C(CCn1c(=O)c2cccn2c2cccnc21)N1CCN(c2ccccc2)CC1 | inactive: 111% |
| CCC(=O)C1=C(c2ccc(F)cc2)N(C(=O)CC)n2c(nnc2-c2ccc(OC)cc2)S1 | inactive: 53% |
| O=C(CSc1nccn1-c1cccc(Cl)c1)Nc1ccc2c(c1)OCO2 | inactive: 71% |
| CCN(C(=O)C1CCN(S(=O)(=O)c2cc(Br)cc3c2N(C(C)=O)CC3)CC1)c1cccc(C)c1 | inactive: 93% |
| COc1ccc(-c2cnc(C)o2)cc1S(=O)(=O)Nc1ccc(NC(C)=O)cc1 | inactive: 81% |

| SMILES | survival |
| --- | --- |
| CCC(=O)NNc1ncnc2c1cnn2-c1ccc(C)c(Cl)c1 | inactive: 68% |
| CCn1c(SCC(=O)Nc2ccccc2C(=O)OC)nc2ccsc2c1=O | inactive: 83% |
| Cc1ccc(-c2cc(C(=O)Oc3ccc(C#N)cc3)no2)cc1 | inactive: 88% |
| O=C(O)CCC(=O)NCc1ccccn1 | inactive: 84% |
| CCc1ccc(CSc2nc(-c3ccccc3F)nc3c2Cc2c(CO)cnc(C)c2O3)cc1 | inactive: 86% |
| O=C(CSc1nc(=O)[nH]c2c1CCC2)NCc1ccccc1Cl | inactive: 78% |
| CCN(Cc1ccccc1)C(=O)Cn1c(=O)n(-c2ccccc2)c(=O)c2c1c1cc(C)ccc1n2C | inactive: 71% |
| Cc1nc2ccccc2c(=O)n1-c1ccc(NC(=O)c2ccccc2[N+](=O)[O-])cc1 | inactive: 73% |
| Cc1ccc(NC(=O)Cn2c(=O)n(Cc3ccco3)c(=O)c3oc4ccccc4c32)cc1C | inactive: 88% |
| COc1ccc(OC(=O)c2nc(SCc3ccccc3F)ncc2Cl)cc1 | inactive: 86% |
| CCC(C)NC(=O)c1nn(-c2ccc(C)cc2)nc1CO (stereo not given) | inactive: 88% |
| O=C(NC1CCCCCC1)C1COc2ccccc2O1 (stereo not given) | inactive: 128% |
| CCCC(c1nnnn1CCC(C)C)N1CCC(C(N)=O)CC1 (stereo not given) | inactive: 105% |
| Cc1cccc(CN2C(=O)c3ccccc3Sc3ccc(C(=O)NC4CCCCC4)cc32)c1 | inactive: 128% |
| CC(C)(C)c1ccc(C(=O)NCC(c2cccnc2)N2CCc3ccccc3C2)cc1 (stereo not given) | inactive: 97% |
| Cc1cccc(CNC(=O)C2CCC(CNS(=O)(=O)c3ccc4c(c3)CCCC(=O)N4)CC2)c1 (stereo not given) | inactive: 65% |
| O=C(Nc1ccc2nc(SCC(=O)N3CCOCC3)sc2c1)c1cccc(Br)c1 | inactive: 39% |
| CC1CCC(C(=O)NC(C(=O)OCC(=O)c2ccc(Br)cc2)C(C)C)CC1 (stereo not given) | inactive: 90% |
| Cc1ccc(CNS(=O)(=O)c2cc3c(cc2Cl)NC(=O)CO3)o1 | inactive: 124% |
| CCCn1c(N)nc2c1c(=O)[nH]c(=O)n2C | inactive: 110% |
| Cc1ccc(S(=O)(=O)c2cn(CC(=O)Nc3cccc(C)c3)c3cc4c(cc3c2=O)OCO4)cc1 | inactive: 86% |
